Test [1] has as its target YbeY (E. coli), bacterial two-hybrid fusion (E. coli) (UniProt P0A898). Put plainly: two-hybrid; bacterial adenylate cyclase two-hybrid (BACTH) in E. coli BTH101; T25 and T18 fusions; spots or streaks on LB agar with X-Gal, IPTG and TPEG, 30°C, colour read after 2 or 3 days.
The target is the same in test [2]. Put plainly: two-hybrid; BACTH liquid culture assay in E. coli BTH101; T25-YbeY and x-T18; beta-galactosidase activity (Beta-Glo, RLU normalised to cell density) over 72 h.
The target of test [3] is YbeY D85R T42F (T25-YbeY mutant) (E. coli) (UniProt P0A898). Put plainly: two-hybrid; bacterial adenylate cyclase two-hybrid (BACTH) in E. coli BTH101; T25 and T18 fusions; spots or streaks on LB agar with X-Gal, IPTG and TPEG, 30°C, colour read after 2 or 3 days.
The target in test [4] is YbeY D85R (T25-YbeY mutant) (E. coli) (UniProt P0A898). The description is as above.
Test [5] concerns the target YbeY D85R R44D (T25-YbeY mutant) (E. coli) (UniProt P0A898). The test is described as above.
Test [6] addresses YbeY H114A H124A (T25-YbeY mutant) (E. coli) (UniProt P0A898). The test is described as above.
Test [7] concerns the target YbeY T42F (T25-YbeY mutant) (E. coli) (UniProt P0A898). The test is described as above.
Test [8] deals with T1, Nucleoside triphosphate pyrophosphohydrolase MazG, bacterial two-hybrid fusion (E. coli) (UniProt P0AEY3).
T1 sequence: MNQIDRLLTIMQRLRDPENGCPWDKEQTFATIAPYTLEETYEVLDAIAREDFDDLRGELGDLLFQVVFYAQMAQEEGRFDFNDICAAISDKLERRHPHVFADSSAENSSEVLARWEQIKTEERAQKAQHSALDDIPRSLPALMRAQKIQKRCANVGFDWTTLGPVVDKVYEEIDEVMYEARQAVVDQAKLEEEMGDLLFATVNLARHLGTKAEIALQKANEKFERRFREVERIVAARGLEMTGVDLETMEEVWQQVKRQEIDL
The description is as above.

Chains of the proteins cited; added tags and fusions are not shown.
UniProt P0AE72: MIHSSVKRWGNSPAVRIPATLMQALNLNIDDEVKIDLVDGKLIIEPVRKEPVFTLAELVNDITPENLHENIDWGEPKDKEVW
UniProt P42641: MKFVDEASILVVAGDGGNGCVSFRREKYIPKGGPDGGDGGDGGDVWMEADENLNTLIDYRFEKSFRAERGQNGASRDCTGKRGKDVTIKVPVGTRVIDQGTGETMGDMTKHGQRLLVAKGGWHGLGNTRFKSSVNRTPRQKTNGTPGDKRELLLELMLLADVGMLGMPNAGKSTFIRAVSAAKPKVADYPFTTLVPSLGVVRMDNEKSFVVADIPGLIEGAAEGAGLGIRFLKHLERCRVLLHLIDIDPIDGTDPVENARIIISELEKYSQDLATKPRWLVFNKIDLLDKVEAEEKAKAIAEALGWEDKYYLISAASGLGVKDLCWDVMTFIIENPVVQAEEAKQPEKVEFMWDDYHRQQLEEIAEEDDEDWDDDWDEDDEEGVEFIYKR
UniProt P0A705: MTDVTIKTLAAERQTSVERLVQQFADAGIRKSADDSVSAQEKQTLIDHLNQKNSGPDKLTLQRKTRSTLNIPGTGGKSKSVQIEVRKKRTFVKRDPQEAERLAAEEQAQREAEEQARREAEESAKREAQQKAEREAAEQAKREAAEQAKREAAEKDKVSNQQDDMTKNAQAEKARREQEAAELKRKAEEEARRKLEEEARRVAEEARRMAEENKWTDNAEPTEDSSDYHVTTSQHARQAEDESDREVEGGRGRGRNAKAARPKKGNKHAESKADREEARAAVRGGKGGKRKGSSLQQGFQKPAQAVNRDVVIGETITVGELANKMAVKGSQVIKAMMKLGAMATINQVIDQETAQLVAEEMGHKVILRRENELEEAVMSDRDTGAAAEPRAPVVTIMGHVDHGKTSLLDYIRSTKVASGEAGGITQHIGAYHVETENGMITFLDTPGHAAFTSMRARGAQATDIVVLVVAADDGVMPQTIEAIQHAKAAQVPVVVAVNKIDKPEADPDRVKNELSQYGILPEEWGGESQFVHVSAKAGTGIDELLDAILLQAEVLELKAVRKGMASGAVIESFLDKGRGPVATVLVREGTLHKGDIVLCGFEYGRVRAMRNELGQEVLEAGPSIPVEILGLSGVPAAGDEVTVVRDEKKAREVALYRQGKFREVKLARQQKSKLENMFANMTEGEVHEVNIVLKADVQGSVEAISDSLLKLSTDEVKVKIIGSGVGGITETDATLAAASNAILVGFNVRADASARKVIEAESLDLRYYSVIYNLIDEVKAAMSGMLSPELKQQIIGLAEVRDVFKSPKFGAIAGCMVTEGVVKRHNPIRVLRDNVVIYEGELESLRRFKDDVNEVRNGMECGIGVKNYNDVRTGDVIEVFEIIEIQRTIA
UniProt P0A6X3: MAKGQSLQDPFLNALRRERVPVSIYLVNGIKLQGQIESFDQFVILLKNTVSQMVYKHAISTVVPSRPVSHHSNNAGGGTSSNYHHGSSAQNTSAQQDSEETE
UniProt P21513: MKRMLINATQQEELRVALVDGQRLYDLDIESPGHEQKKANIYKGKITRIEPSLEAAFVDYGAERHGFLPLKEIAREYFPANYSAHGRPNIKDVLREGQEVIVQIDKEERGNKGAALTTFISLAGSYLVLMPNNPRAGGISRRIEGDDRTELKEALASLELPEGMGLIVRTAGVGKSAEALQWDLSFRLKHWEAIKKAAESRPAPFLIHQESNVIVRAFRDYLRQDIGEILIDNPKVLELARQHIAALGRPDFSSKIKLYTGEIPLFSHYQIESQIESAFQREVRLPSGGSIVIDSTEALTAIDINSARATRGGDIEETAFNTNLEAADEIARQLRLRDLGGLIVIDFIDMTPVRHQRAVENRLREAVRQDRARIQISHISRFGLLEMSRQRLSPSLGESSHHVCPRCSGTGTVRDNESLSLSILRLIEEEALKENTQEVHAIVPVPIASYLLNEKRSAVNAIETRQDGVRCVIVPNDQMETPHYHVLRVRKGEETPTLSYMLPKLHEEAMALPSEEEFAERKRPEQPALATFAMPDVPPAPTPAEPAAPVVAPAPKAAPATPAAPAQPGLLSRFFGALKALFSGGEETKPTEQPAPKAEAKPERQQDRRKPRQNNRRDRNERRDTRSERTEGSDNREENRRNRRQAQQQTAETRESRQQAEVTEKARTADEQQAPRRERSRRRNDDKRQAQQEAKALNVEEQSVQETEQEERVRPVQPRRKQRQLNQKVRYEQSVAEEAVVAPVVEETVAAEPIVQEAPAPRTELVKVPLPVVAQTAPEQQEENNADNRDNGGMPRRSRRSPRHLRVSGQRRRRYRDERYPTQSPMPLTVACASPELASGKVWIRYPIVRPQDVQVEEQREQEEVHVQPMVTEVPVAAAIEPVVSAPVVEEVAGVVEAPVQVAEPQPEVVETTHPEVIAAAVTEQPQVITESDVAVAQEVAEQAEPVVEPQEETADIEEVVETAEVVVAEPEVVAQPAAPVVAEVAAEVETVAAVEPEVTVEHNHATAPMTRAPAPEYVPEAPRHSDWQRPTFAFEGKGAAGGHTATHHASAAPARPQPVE

The target of test [9] is YbeY R59E (T25-YbeY mutant) (E. coli) (UniProt P0A898). Described as above.
The target in test [10] is YbeY R59E K61E (T25-YbeY mutant) (E. coli) (UniProt P0A898). The test is described as above.
Test [11] deals with YbeY R44D (T25-YbeY mutant) (E. coli) (UniProt P0A898). The test is described as above.
For test [12], the target named is YbeY K61E (T25-YbeY mutant) (E. coli) (UniProt P0A898). The test is described as above.

These are yes or no findings as the source states them, for the method shown. Some results given as binding are weak or reduced against the parent protein; the word gives no strength. For part of these data: Tags and fused reporters may be left off the sequences shown.

Take “Antitoxin MazE, bacterial two-hybrid fusion (from UniProt P0AE72 1-82)”: the binding result in test [1] is given as “no binding”.

As to “Bifunctional (p)ppGpp synthase/hydrolase SpoT, bacterial two-hybrid fusion (from UniProt P0AG24 1-702)”, the binding entry in [1] is listed as “binds”.

On to “GTPase Era, bacterial two-hybrid fusion (from UniProt P06616 1-301)”, for which the binding result in test [2], in test [3], in test [4], in test [5], in test [6] and in test [7] was “binds” in each case. Also, the binding result in [8], in [1], in test [9], in [10], in [11] and in test [12] was “binds” throughout.

Consider “GTPase ObgE, bacterial two-hybrid fusion (from UniProt P42641 1-390)”, for which, in [1], the binding result is “no binding”.

Take “Initiation factor 2 (IF2), bacterial two-hybrid fusion (from UniProt P0A705 1-890)”: the binding entry in test [1] is given as “no binding”.

Take “RNA chaperone Hfq, bacterial two-hybrid fusion (from UniProt P0A6X3 1-102)”: in test [1], the binding result is on record as “no binding”.

In the case of “RNase E, bacterial two-hybrid fusion (from UniProt P21513 1-1061)”, the binding result in test [1] was “no binding”.

The record behind these values is article PMC5101352.
